# Measured values: the supplement of paper PMC8728848
# Some of the results follow.
# What was measured:
# Assay in all cases: glycan array binding signal (z-score within array); higher = stronger binding
# Conditions in all cases: glycan notation: IUPAC condensed, linker removed; mutation: I144G
# [1] = biological target: Fuc(a1-2)[GalNAc(b1-3)]Gal
# Outline: (§1)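 Glycan array data came from 3228 arrays in the Consortium for Functional Glycomics database, and only arrays with an available protein sequence were kept. Glycan names were put into IUPAC-condensed notation, and columns mapping to the same glycan were averaged. The binding signal is a within-array Z-score, averaged across arrays of one protein sequence run at different concentrations or buffers and across linkers. A negative Z-score can be read as non-binding.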
# Fuc(a1-3)GlcNAc = biological target: Fuc(a1-3)GlcNAc
# Outline: as §1
# [2] = biological target: Fuc(a1-3)[Gal(b1-4)]Glc6S
# Outline: as §1
# [3] = biological target: Fuc(a1-3)[Gal(b1-4)]GlcNAc
# Outline: as §1
# [4] = biological target: Fuc(a1-3)[Gal(b1-4)]GlcNAc(b1-2)Man
# Outline: as §1
# [5] = biological target: Fuc(a1-3)[Gal(b1-4)]GlcNAc(b1-2)Man(a1-3)[Fuc(a1-3)[Gal(b1-4)]GlcNAc(b1-2)Man(a1-6)]Man(b1-4)GlcNAc(b1-4)GlcNAc
# Outline: as §1
# [6] = biological target: Fuc(a1-3)[Gal(b1-4)]GlcNAc(b1-2)Man(a1-3)[Fuc(a1-3)[Gal(b1-4)]GlcNAc(b1-2)Man(a1-6)]Man(b1-4)GlcNAc(b1-4)[Fuc(a1-6)]GlcNAc
# Outline: as §1
# [7] = biological target: Fuc(a1-3)[Gal(b1-4)]GlcNAc(b1-3)Gal(b1-3)[Fuc(a1-4)]GlcNAc
# Outline: as §1
# [8] = biological target: Fuc(a1-3)[Gal(b1-4)]GlcNAc(b1-3)Gal(b1-4)[Fuc(a1-3)]GlcNAc
# Outline: as §1
# [9] = biological target: Fuc(a1-3)[Gal(b1-4)]GlcNAc(b1-3)Gal(b1-4)[Fuc(a1-3)]GlcNAc(b1-3)Gal(b1-4)[Fuc(a1-3)]GlcNAc
# Outline: as §1
# [10] = biological target: Fuc(a1-3)[Gal(b1-4)]GlcNAc(b1-3)GalNAc
# Outline: as §1
# [11] = biological target: Fuc(a1-3)[Gal(b1-4)]GlcNAc(b1-6)GalNAc
# Outline: as §1
# [12] = biological target: Fuc(a1-3)[Gal(b1-4)]GlcNAc(b1-6)[Gal(b1-3)GlcNAc(b1-3)]Gal(b1-4)Glc
# Outline: as §1
# [13] = biological target: Fuc(a1-3)[Gal(b1-4)]GlcNAc6S
# Outline: as §1
# [14] = biological target: Fuc(a1-3)[Gal3S(b1-4)]Glc
# Outline: as §1
# [15] = biological target: Fuc(a1-3)[Gal3S(b1-4)]GlcNAc
# Outline: as §1
# [16] = biological target: Fuc(a1-3)[Gal3S(b1-4)]GlcNAc6S
# Outline: as §1
# [17] = biological target: Fuc(a1-3)[GalNAc(b1-4)]GlcNAc
# Outline: as §1
# [18] = biological target: Fuc(a1-3)[GalNAc(b1-4)]GlcNAc6S
# Outline: as §1
# Fuc(a1-4)GlcNAc = biological target: Fuc(a1-4)GlcNAc
# Outline: as §1
# Fuc(b1-3)GlcNAc = biological target: Fuc(b1-3)GlcNAc
# Outline: as §1
# Gal(a1-2)Gal = biological target: Gal(a1-2)Gal
# Outline: as §1
# Gal(a1-3)Gal = biological target: Gal(a1-3)Gal
# Outline: as §1
# Gal(a1-3)Gal(b1-3)GlcNAc = biological target: Gal(a1-3)Gal(b1-3)GlcNAc
# Outline: as §1
# [19] = biological target: Gal(a1-3)Gal(b1-3)GlcNAc(b1-2)Man
# Outline: as §1
# [20] = biological target: Gal(a1-3)Gal(b1-3)GlcNAc(b1-2)Man(a1-3)[Gal(a1-3)Gal(b1-3)GlcNAc(b1-2)Man(a1-6)]Man(b1-4)GlcNAc(b1-4)GlcNAc
# Outline: as §1
# [21] = biological target: Gal(a1-3)Gal(b1-3)GlcNAc(b1-3)GalNAc
# Outline: as §1
# [22] = biological target: Gal(a1-3)Gal(b1-3)GlcNAc(b1-6)GalNAc
# Outline: as §1
# [23] = biological target: Gal(a1-3)Gal(b1-3)[Fuc(a1-4)]GlcNAc(b1-2)Man(a1-3)[Gal(a1-3)Gal(b1-3)[Fuc(a1-4)]GlcNAc(b1-2)Man(a1-6)]Man(b1-4)GlcNAc(b1-4)GlcNAc
# Outline: as §1
# Gal(a1-3)Gal(b1-4)Glc = biological target: Gal(a1-3)Gal(b1-4)Glc
# Outline: as §1
# Gal(a1-3)Gal(b1-4)GlcNAc = biological target: Gal(a1-3)Gal(b1-4)GlcNAc
# Outline: as §1
# [24] = biological target: Gal(a1-3)Gal(b1-4)GlcNAc(b1-2)Man
# Outline: as §1
# [25] = biological target: Gal(a1-3)Gal(b1-4)GlcNAc(b1-2)Man(a1-3)[Gal(a1-3)Gal(b1-4)GlcNAc(b1-2)Man(a1-6)]Man(b1-4)GlcNAc(b1-4)GlcNAc
# Outline: as §1
# [26] = biological target: Gal(a1-3)Gal(b1-4)GlcNAc(b1-3)GalNAc
# Outline: as §1
# [27] = biological target: Gal(a1-3)Gal(b1-4)GlcNAc(b1-6)GalNAc
# Outline: as §1
# [28] = biological target: Gal(a1-3)Gal(b1-4)[Fuc(a1-3)]GlcNAc
# Outline: as §1
# [29] = biological target: Gal(a1-3)Gal(b1-4)[Fuc(a1-3)]GlcNAc(b1-2)Man(a1-3)[Gal(a1-3)Gal(b1-4)[Fuc(a1-3)]GlcNAc(b1-2)Man(a1-6)]Man(b1-4)GlcNAc(b1-4)GlcNAc
# Outline: as §1
# Gal(a1-3)GalNAc = biological target: Gal(a1-3)GalNAc
# Outline: as §1
# [30] = biological target: Gal(a1-3)[Gal(a1-4)]Gal(b1-4)GlcNAc
# Outline: as §1
# [31] = biological target: Gal(a1-4)Gal(b1-3)GlcNAc(b1-2)Man(a1-3)[Gal(a1-4)Gal(b1-3)GlcNAc(b1-2)Man(a1-6)]Man(b1-4)GlcNAc(b1-4)GlcNAc
# Outline: as §1
# Gal(a1-4)Gal(b1-4)Glc = biological target: Gal(a1-4)Gal(b1-4)Glc
# Outline: as §1
# Gal(a1-4)Gal(b1-4)GlcNAc = biological target: Gal(a1-4)Gal(b1-4)GlcNAc
# Outline: as §1
# [32] = biological target: Gal(a1-4)Gal(b1-4)GlcNAc(b1-2)Man(a1-3)[Gal(a1-4)Gal(b1-4)GlcNAc(b1-2)Man(a1-6)]Man(b1-4)GlcNAc(b1-4)GlcNAc
# Outline: as §1
# [33] = biological target: Gal(a1-4)Gal(b1-4)GlcNAc(b1-3)Gal(b1-4)Glc
# Outline: as §1
# Gal(a1-4)GlcNAc = biological target: Gal(a1-4)GlcNAc
# Outline: as §1
binder,measurement,setting,value
"rAAL-I144G (Agrocybe aegerita), Q6WY08 (protein) MQGVNIYNISAGTSVDLAAPVTTGDIVTFFSSALNLNAGAGNPNNTTLNLFAENGAYLLHIAFRLQENVIIFNSRQPDGPWLVEQRVSDVANQFAGIDGKAMVTVFDHGDKYQVVINEKTVIQYTKQISGLTLSLSYNATEETSGFSTVVEAVTYTGLALEHHHHHH",glycan array binding signal (z-score),[1],-0.068
same,glycan array binding signal (z-score),Fuc(a1-3)GlcNAc,-0.143
same,glycan array binding signal (z-score),[2],-0.162
same,glycan array binding signal (z-score),[3],-0.09
same,glycan array binding signal (z-score),[4],-0.188
same,glycan array binding signal (z-score),[5],-0.154
same,glycan array binding signal (z-score),[6],-0.074
same,glycan array binding signal (z-score),[7],-0.144
same,glycan array binding signal (z-score),[8],-0.126
same,glycan array binding signal (z-score),[9],-0.14
same,glycan array binding signal (z-score),[10],-0.098
same,glycan array binding signal (z-score),[11],-0.12
same,glycan array binding signal (z-score),[12],-0.06
same,glycan array binding signal (z-score),[13],-0.124
same,glycan array binding signal (z-score),[14],-0.051
same,glycan array binding signal (z-score),[15],-0.177
same,glycan array binding signal (z-score),[16],-0.051
same,glycan array binding signal (z-score),[17],-0.177
same,glycan array binding signal (z-score),[18],-0.169
same,glycan array binding signal (z-score),Fuc(a1-4)GlcNAc,-0.097
same,glycan array binding signal (z-score),Fuc(b1-3)GlcNAc,-0.158
same,glycan array binding signal (z-score),Gal(a1-2)Gal,-0.126
same,glycan array binding signal (z-score),Gal(a1-3)Gal,-0.059
same,glycan array binding signal (z-score),Gal(a1-3)Gal(b1-3)GlcNAc,-0.116
same,glycan array binding signal (z-score),[19],-0.135
same,glycan array binding signal (z-score),[20],-0.179
same,glycan array binding signal (z-score),[21],-0.162
same,glycan array binding signal (z-score),[22],-0.113
same,glycan array binding signal (z-score),[23],-0.159
same,glycan array binding signal (z-score),Gal(a1-3)Gal(b1-4)Glc,-0.103
same,glycan array binding signal (z-score),Gal(a1-3)Gal(b1-4)GlcNAc,-0.167
same,glycan array binding signal (z-score),[24],-0.065
same,glycan array binding signal (z-score),[25],2.88
same,glycan array binding signal (z-score),[26],-0.147
same,glycan array binding signal (z-score),[27],-0.123
same,glycan array binding signal (z-score),[28],-0.179
same,glycan array binding signal (z-score),[29],0.126
same,glycan array binding signal (z-score),Gal(a1-3)GalNAc,-0.151
same,glycan array binding signal (z-score),[30],-0.115
same,glycan array binding signal (z-score),[31],-0.008
same,glycan array binding signal (z-score),Gal(a1-4)Gal(b1-4)Glc,0.015
same,glycan array binding signal (z-score),Gal(a1-4)Gal(b1-4)GlcNAc,-0.116
same,glycan array binding signal (z-score),[32],-0.092
same,glycan array binding signal (z-score),[33],-0.026
same,glycan array binding signal (z-score),Gal(a1-4)GlcNAc,-0.107
